Assay results as given in PubChem BioAssay AID504832 (National Center for Advancing Translational Sciences (NCATS), 2011).
The whole screen tested about 310,000 compounds, of which about 18,000 (5.8%) were called active. Inconclusive means that the source gave no clear call. Such entries were picked first, then a sample of the others. Calls follow the shape of the dose curve; as a rule, active = well fitted inhibition curve with a large enough effect; inconclusive = small, poorly fitted or top-dose-only effect, or another doubt; inactive = no such curve, though single readings can be large or run the other way. No potency is given beside an inconclusive call; the fits are too rough.

test: Primary qHTS for delayed death inhibitors of the malarial parasite plastid, 48 hour incubation; details: P. falciparum luciferase growth in erythrocytes; series mostly up to 28.7 µM
Outline: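 Luciferase-expressing P. falciparum in infected erythrocytes (2% hematocrit, 0.1% parasitemia final) in RPMI 1640/0.5% Albumax were exposed to compound for 48 hours at 37 C, 5% CO2; growth read as luminescence.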
Potency is read from the fitted curve at half-maximal effect; tags tell the direction and shape of the fitted curve.

Structure (SMILES)	Potency
Nc1nc(CSc2nnnn2-c2ccccc2)nc(N2CCCc3ccccc32)n1	active: 10.4 µM
COc1ccc([C@@H]2C[C@@H](c3ccccc3)Oc3cc(C)cc(C)c32)cc1	inconclusive [inhibitor, partial curve]
COc1ccc(C(=O)Nc2nc3ccccc3s2)cc1OC	inconclusive [inhibitor, single point]
COc1ccc(NC(=O)c2cc(S(=O)(=O)N3CCc4ccccc43)cn2C)cc1	active: 9.28 µM
O=C(COc1ccccc1F)Nc1ccc2c(c1)OCCO2	inactive
COc1ccc(OCC(=O)NNC(=O)c2cccc(O)c2)cc1	inactive
COCCNc1nnnc2c1sc1nc(N3CCOCC3)c3c(c12)CCCC3	inconclusive [inhibitor, partial curve]
O=C(Nc1ccccc1-c1ccccc1)C(c1ccccc1)c1ccccc1	inconclusive [inhibitor, full curve, poor fit]
CCOC(=O)c1ccc(Oc2nc(NC)nc(Nc3ccccc3)n2)cc1	inconclusive [inhibitor, partial curve, poor fit]
Cc1cccc(CSC(Nc2ccc(F)cc2)=C(C#N)C#N)c1	inconclusive [inhibitor, single point]
CCOCc1c(C(=O)N2CCN(CCOc3ccc(Cl)cc3)CC2)oc2ccccc12	inconclusive [inhibitor, single point]
O=C(NC(=S)Nc1ccc(N2CCN(C(=O)c3ccccc3)CC2)cc1)c1cccs1	inconclusive [inhibitor, single point]
CCN(CC)C(=O)CSc1nnc(-c2ccncc2)n1N	inactive
O=C(c1cccs1)N(Cc1ccc(Cl)cc1)C1CCS(=O)(=O)C1 (stereo not drawn)	inconclusive [inhibitor, single point]
COc1cccc(NC(=O)C2C3C=CC4(O3)C2C(=O)N(CCN2CCCCC2)C4C(=O)NC2CCCCC2C)c1 (stereo not drawn)	inactive
O=C(O)c1ccc(N2CC3CC(C2)c2cccc(=O)n2C3)c(NC(=S)Nc2ccc(Cl)cc2Cl)c1 (stereo not drawn)	inactive
CCCCCNC(=O)c1cccc(S(=O)(=O)N2CC3(C)CC2CC(C)(C)C3)c1 (stereo not drawn)	inconclusive [inhibitor, partial curve, poor fit]
CCC(C(=O)NCCCN1CCN(C)CC1)n1nc(C)n2c(cc3occc32)c1=O (stereo not drawn)	inactive
CCSc1nc2c(c(=O)n1-c1ccc(F)cc1)SCC2	inconclusive [inhibitor, partial curve]
C=CCn1c(O)c(C(C)=Nc2ccc(C(=O)OCC)cc2)c(=O)[nH]c1=O	inactive
CCOc1ccc(NC(=O)CN2CCN(CC(=O)Nc3ccc(OC)cc3OC)CC2)cc1	inconclusive [inhibitor, partial curve]
COc1cc(C(=O)NCCC(=O)NCCN2CCCCCC2)cc(OC)c1OC	inconclusive [inhibitor, full curve]
O=C(NCc1ccccc1)c1cc(-c2ccco2)on1	inactive
Cc1ccc(S(=O)(=O)N2CCC(C(=O)OCC(=O)N3CCC(C)CC3)CC2)cc1C	inconclusive [inhibitor, partial curve]
O=C(C1CC(=O)N(C2CCCC2)C1)N1CCN(c2cccc(Cl)c2)CC1 (stereo not drawn)	inconclusive [inhibitor, single point]

Structure (SMILES)	Potency
CC(C)(C)c1ccc2c(c1)C(=O)c1ccccc1C2=O	inactive
Cc1csc(NC(=O)Nc2cccc(Cl)c2)n1	inactive
CN(C)c1ccc(C(CN)c2c[nH]c3ccccc23)cc1 (stereo not drawn)	active: 9.28 µM
Cc1nc2sccn2c(=O)c1S(=O)(=O)N1CCN(c2ccc(F)cc2)CC1	inactive
Cn1nc(-c2ccccc2)c(CO)c1Oc1cccc(C(F)(F)F)c1	inconclusive [inhibitor, single point]
Cc1ccc2nc(/C(C#N)=C\c3cc(O)ccc3[N+](=O)[O-])[nH]c2c1	inactive
COc1cccc(NC(=O)CN(C)C(=O)c2cn(-c3ccccc3)nc2-c2cccs2)c1	inconclusive [inhibitor, single point]
O=C(CN(c1ccccc1)S(=O)(=O)c1ccccc1)N/N=C/c1ccco1	inactive
CC1CCN(CC(CS(=O)(=O)c2ccc([N+](=O)[O-])cc2)N2CCC(C)CC2)CC1 (stereo not drawn)	inconclusive [inhibitor, partial curve]
Cc1ccc(OCCNC(=O)c2ccccc2OCc2c(C)noc2C)cc1	inconclusive [inhibitor, partial curve, poor fit]
O=C(N/N=C/c1cccs1)c1ccc(-n2cccc2)cc1	inconclusive [inhibitor, full curve, poor fit]
CCOC(=O)Nc1nc(-c2ccc(Cl)cc2Cl)cs1	inactive
COc1ccc(OC)c(NC(=O)CN2C(=O)NC(C)(c3ccc4c(c3)OCCO4)C2=O)c1 (stereo not drawn)	inconclusive [inhibitor, single point]
O=C(CN1CCN(c2ccccc2F)CC1)Nc1cccnc1Cl	inactive
COc1cccc(NC(=O)C(Cc2ccccc2)NC(=O)C2CCC(C)CC2)c1 (stereo not drawn)	inconclusive [inhibitor, single point]
COC(=O)c1c(NC(C)=O)sc(C)c1C	inactive
CCCCc1cc(=O)oc2cc(C)cc(OC(C)C(=O)NCc3ccccn3)c12 (stereo not drawn)	inconclusive [inhibitor, full curve]
O=S(=O)(c1ccc(Br)cc1)N1CCC(c2nc3ccccc3[nH]2)CC1	inconclusive [inhibitor, partial curve, poor fit]
Cc1ccc(C2(C)NC(=O)N(CC(=O)Nc3ccccc3C(=O)N3CCCCC3)C2=O)cc1 (stereo not drawn)	inconclusive [inhibitor, partial curve, poor fit]
CC1Sc2ccc(S(=O)(=O)CCC(=O)N3CCN(c4ccccc4)CC3)cc2NC1=O (stereo not drawn)	inactive
O=C(c1cnc2n(c1=O)CCS2)N(c1ccccc1)C1CCCCC1	inconclusive [inhibitor, single point]
CCc1ccc(-n2c(SCC(=O)NC3CCS(=O)(=O)C3)nc3ccccc3c2=O)cc1 (stereo not drawn)	inactive
O=C(OCc1ccc(Cl)cc1Cl)c1ccncc1	inactive
COc1ccc(CNC(=O)CCCSc2ccccc2)cc1	inactive
CN(C)CCCO/N=C(\c1ccccc1)c1ccncc1	inactive

Structure (SMILES)	Potency
COc1ccccc1NS(=O)(=O)c1cccc(NC(=O)CCNC(=O)c2ccccc2OC)c1	active: 9.28 µM
O=C(CN1CCCCCC1)Nc1ccccc1C(=O)Nc1ccccc1	inconclusive [inhibitor, single point]
CS(=O)(=O)Nc1ccc(C(=O)Nc2ccc(S(=O)(=O)N3CCCCC3)cc2)cc1	inactive
Nc1nc(CSc2nc3ccccc3[nH]2)nc(N2CCOCC2)n1	inactive
N#CC1=C(N)OC2=C(CC/C2=C\c2ccccc2Cl)C1c1ccccc1Cl (stereo not drawn)	inconclusive [inhibitor, single point]
Cc1[nH]c2ccccc2c1/C=N/NC(=S)NCc1ccccc1	inactive
ClC1=C(Cl)C(Cl)=C(Cl)C1=C/C=C/c1ccccc1	inconclusive [inhibitor, full curve, poor fit]
COc1ccc(/C=C/CN2CCC(n3nccc3NC(=O)C3CCCC3)CC2)cc1	inconclusive [inhibitor, single point]
CC(C)N(Cc1nc(-c2ccccc2)no1)C(=O)CN(C)S(=O)(=O)c1ccccc1	inconclusive [inhibitor, single point]
O=C1N/C(=N/O)S/C1=C/c1cccc([N+](=O)[O-])c1	inactive
COc1ccc(-c2cc([C@H]3[C@@H]4C=CCC[C@@]4(C)C(=O)N3Cc3ccccc3)ccc2F)cc1	inconclusive [inhibitor, partial curve, poor fit]
CN(Cc1ccc(Br)s1)C(=O)CNC(=O)c1ccc2c(c1)OCO2	inconclusive [inhibitor, single point]
COc1ccccc1NS(=O)(=O)c1cc(NC(=O)Nc2ccc(Cl)cc2Cl)ccc1N1CCCCC1	inconclusive [inhibitor, partial curve, poor fit]
O=[N+]([O-])c1ccc(S(=O)(=O)CC(CN2CCOCC2)N2CCOCC2)cc1 (stereo not drawn)	inactive
CC1CN(C(=O)c2ccccc2)c2ccccc2NC1=O (stereo not drawn)	inconclusive [inhibitor, partial curve, poor fit]
O=C(CCCO)N/N=C/c1cc(Br)ccc1O	inactive
CN(CC(=O)Nc1cccc(F)c1)C(=O)c1cc(=O)[nH]c2ccccc12	inconclusive [inhibitor, single point]
O=C(COC(=O)/C=C/c1cccs1)Nc1ccc(F)cc1	inconclusive [inhibitor, partial curve, poor fit]
CCOc1ccc(/C=N/NC(=O)c2ccc(O)cc2)cc1CN1CC2CC(C1)c1cccc(=O)n1C2 (stereo not drawn)	inconclusive [inhibitor, partial curve, poor fit]
CSC(C1CCCC1)n1nnc2ccccc21 (stereo not drawn)	inconclusive [inhibitor, single point]
O=C(N/N=C/c1ccc([N+](=O)[O-])o1)c1cn2ccc3ccccc3c2n1	active: 1.31 µM
CC(C)C[C@@H](N)C(=O)O	inactive
CC1C=CCC2C(=O)N(c3ccc(OC(=O)c4cccs4)cc3)C(=O)C12 (stereo not drawn)	inconclusive [inhibitor, partial curve, poor fit]
